# According to the supplement of paper PMC10126150:
# Values marked as one replicate rest on one cluster of the flow cell; about a third of the high ones do not repeat.
# Tested on: ATP
# Assay: switch fluorescence ratio, 500 uM ATP over buffer (Cy3 cluster intensity, sum of 5 cycles each) (fold (ratio)); higher = stronger signal-on switching upon ATP binding; sequences stand for … in TCGTCGGCAGCGTCAGATGTGTATAAGAGACAGTTTTTTTTTTTTTTTTTTTTTTTTT…TC
# Conditions: aptamer strand: ATP DNA aptamer (quencher-CACCTGGGGGAGTATTGCGGAGGAAGG + anchor), 100 nM annealed; ATP concentration: 500 uM; one replicate
# Method in brief: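 Exposure to 500 uM ATP lasted 15 min at 22 °C before imaging, and a selection-buffer image was taken beforehand, for Cy3-labelled switching-strand clusters on a modified Illumina MiSeq flow-cell annealed to 100 nM quencher-labelled ATP aptamer. Five buffer/ATP cycles were run with NaOH stripping and re-annealing between them. The fluorescence ratio per cluster is summed target-cycle over summed buffer-cycle Cy3 intensity, averaged per switch-domain sequence. Clusters outside 100-1000 RFU were excluded.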
row,Sequence,switch fluorescence ratio
1,TTGGGTGTCG,0.99
2,TTGGTAATAA,1.05
3,TTGGTAGCA,0.927
4,TTGGTAGGT,1.04
5,TTGGTATAAA,1.03
6,TTGGTCAAAG,1.03
7,TTGGTCGCAT,0.993
8,TTGGTCTCTT,0.995
9,TTGGTGCAAG,0.97
10,TTGGTGGAGT,1
11,TTGGTTGATG,0.967
12,TTGGTTGGGC,1.02
13,TTGGTTGGTA,0.994
14,TTGGTTGGTC,0.926
15,TTGGTTTGCA,1.01
16,TTGTAAGAGG,1.02
17,TTGTAAGC,0.999
18,TTGTAATACC,1.21
19,TTGTACACGT,1.08
20,TTGTACCGGG,0.979
21,TTGTACTTGA,0.99
22,TTGTAGTAGT,1.3
23,TTGTAGTCGC,1.01
24,TTGTATGGA,0.992
25,TTGTATTTAC,1.18
26,TTGTCACGAT,1.04

row,Sequence,switch fluorescence ratio
1,TTGTCATATA,1.04
2,TTGTCCCGGG,1.13
3,TTGTCCCGTA,1.06
4,TTGTCGACT,1.01
5,TTGTCGCGGG,0.973
6,TTGTCGGGAT,1.03
7,TTGTCTACAT,1.03
8,TTGTCTTTA,0.996
9,TTGTGCGGTT,0.995
10,TTGTGGTCCG,1
11,TTGTGTCCC,0.97
12,TTGTGTGAGA,1.04
13,TTGTGTGCGT,0.971
14,TTGTGTGGTC,0.961
15,TTGTGTTGAG,0.996
16,TTGTTACGAA,1.05
17,TTGTTACTGT,1.01
18,TTGTTAGCAA,1.63
19,TTGTTAGTCG,1.04
20,TTGTTATACA,1
21,TTGTTATATA,0.968
22,TTGTTCGACC,1.06
23,TTGTTCGCG,0.997
24,TTGTTCTCCC,1.14
25,TTGTTGCTCT,0.982
26,TTGTTTAAGG,0.956

row,Sequence,switch fluorescence ratio
1,TTGTTTAGAG,1.04
2,TTGTTTCCGT,0.961
3,TTGTTTGCGC,0.968
4,TTGTTTGTGG,1.01
5,TTTAAACTCT,0.985
6,TTTAACATGG,1.05
7,TTTAACCTGT,1.04
8,TTTAACGCGG,0.974
9,TTTAACGCTA,1.23
10,TTTAAGGTCT,1.02
11,TTTAATCCTG,0.982
12,TTTAATGGCT,0.992
13,TTTAATGT,0.976
14,TTTAATTCTA,0.957
15,TTTACAGTTC,1
16,TTTACCTCCA,1.1
17,TTTACCTTGT,0.987
18,TTTACGCCAG,1.01
19,TTTACGGCAT,1.15
20,TTTACTTGCT,1.03
21,TTTACTTTCG,1.02
22,TTTAGACCGC,1.02
23,TTTAGAGACT,0.984
24,TTTAGCCAGA,0.955
25,TTTAGCCCAC,0.983
26,TTTAGCGCGC,1.02

row,Sequence,switch fluorescence ratio
1,TTTAGCGCGT,1.01
2,TTTAGCGGT,1.02
3,TTTAGCTCAC,1.02
4,TTTAGGCTAG,0.994
5,TTTAGGGCAC,1.07
6,TTTAGGGG,0.978
7,TTTAGTCAGG,0.99
8,TTTAGTGTA,1
9,TTTAGTTCT,0.985
10,TTTATACCGG,1.03
11,TTTATACGTG,0.974
12,TTTATAGTTG,0.982
13,TTTATCAGC,1.06
14,TTTATCAGCG,0.992
15,TTTATCCATA,1.02
16,TTTATGAC,1.01
17,TTTATGCCCC,0.977
18,TTTATGGTGA,0.981
19,TTTATTGAT,1.01
20,TTTCAACCG,0.978
21,TTTCACAAGT,1.01
22,TTTCAGAGGT,0.983
23,TTTCAGCTAG,0.956
